Results from the supplement of paper PMC3334620.
Over roughly 33,000 sequences, “E-score (-0.5 to 0.5)” has its median near -0.041; the highest 2% begin near 0.37. The list shows a part of the results.

These sequences were tested against T1, Ecm22 (UniProt Q05958) (assay: PBM E-score (8-mer binding enrichment) (E-score (-0.5 to 0.5)); higher = stronger / more preferred TF binding; most listed sequences are background and not binding sites). Settings: protein concentration: 200 nM; construct: GST-full length.
T1 sequence: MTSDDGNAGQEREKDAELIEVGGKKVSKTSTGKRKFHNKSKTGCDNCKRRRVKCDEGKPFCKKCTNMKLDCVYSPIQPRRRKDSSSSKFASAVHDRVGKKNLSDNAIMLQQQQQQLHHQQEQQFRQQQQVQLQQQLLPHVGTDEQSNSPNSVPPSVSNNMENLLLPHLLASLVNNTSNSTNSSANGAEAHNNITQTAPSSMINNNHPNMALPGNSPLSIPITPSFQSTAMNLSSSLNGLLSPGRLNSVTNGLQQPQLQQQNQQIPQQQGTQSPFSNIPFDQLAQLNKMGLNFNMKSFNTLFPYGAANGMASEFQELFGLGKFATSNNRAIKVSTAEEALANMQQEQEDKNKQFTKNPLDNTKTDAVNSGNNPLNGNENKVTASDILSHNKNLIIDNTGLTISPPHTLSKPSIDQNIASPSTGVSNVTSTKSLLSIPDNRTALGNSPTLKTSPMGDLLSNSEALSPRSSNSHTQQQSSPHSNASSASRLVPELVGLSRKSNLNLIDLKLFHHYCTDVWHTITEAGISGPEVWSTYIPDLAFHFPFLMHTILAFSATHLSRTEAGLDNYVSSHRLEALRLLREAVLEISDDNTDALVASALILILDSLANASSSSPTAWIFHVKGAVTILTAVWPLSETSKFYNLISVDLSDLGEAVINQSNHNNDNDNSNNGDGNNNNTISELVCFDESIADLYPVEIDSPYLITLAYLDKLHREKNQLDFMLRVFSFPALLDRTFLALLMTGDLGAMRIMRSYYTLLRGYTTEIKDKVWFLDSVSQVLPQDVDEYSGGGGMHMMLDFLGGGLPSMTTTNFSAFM
Outline: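 For each ungapped eight-base word taken together with its reverse complement, the Universal PBM Analysis Suite assigned an E-score. Binding data came from GST-tagged yeast transcription factors, applied at about 100-200 nM, on universal all-10-mer Agilent arrays made double-stranded by primer extension. Fluorescent anti-GST marked bound protein, and scans were normalised with masliner.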

Compared with TCGGAGCA, ACCTGAGA is lower in “PBM E-score” value: -0.0248 for the first, -0.205 for the second.

First: AGCCCGCA
Second: AATGATTC
The “PBM E-score” value of the first is lower: -0.133 for the first, 0.162 for the second.

First: CCCTCTAC
Second: CAAACGGC
The “PBM E-score” value of the first is lower: -0.118 for the first, 0.191 for the second.

First: CCTGTGAC
Second: ATTGAAGG
The “PBM E-score” value of the first is lower: -0.223 for the first, -0.198 for the second.

Going from CCGGCATC to AAGCTGAC, the “PBM E-score” value rises from -0.183 to -0.146.

First: GAGATTGC
Second: AGCGTAGC
The “PBM E-score” value of the first is lower: -0.161 for the first, 0.0771 for the second.

Compared with GAGTATTA, AATAGCGG is lower in “PBM E-score” value: 0.0153 for the first, -0.0162 for the second.

Compared with GCAGAGTA, CTCCGCCC is lower in “PBM E-score” value: 0.0363 for the first, -0.295 for the second.

Compared with CCTTCGTC, CGTAATCA is higher in “PBM E-score” value: 0.0674 for the first, 0.18 for the second.

First: CCGCCCCA
Second: AGTGTCTA
The “PBM E-score” value of the first is lower: -0.0386 for the first, -0.0224 for the second.

Going from ACTCCCCA to CTTACTCC, the “PBM E-score” value rises from -0.3 to 0.00936.

First: GTGGCAAC
Second: ATGGGTAA
The “PBM E-score” value of the first is lower: -0.0814 for the first, -0.0404 for the second.

Compared with CAACACCG, CTATAGTC is higher in “PBM E-score” value: -0.222 for the first, 0.0966 for the second.

Compared with AACCGTAT, ATTCCTCG is lower in “PBM E-score” value: 0.341 for the first, 0.264 for the second.

First: AAGAGTAA
Second: ACTTACAA
The “PBM E-score” value of the first is lower: -0.152 for the first, 0.0916 for the second.

Compared with CCTAAGGA, AGGCGACT is lower in “PBM E-score” value: -0.01 for the first, -0.171 for the second.

First: CCCTATGC
Second: AGAAAGCG
The “PBM E-score” value of the first is lower: -0.263 for the first, 0.0413 for the second.

Going from ACTTCGGA to CACCCGCG, the “PBM E-score” value falls from 0.139 to -0.0941.

First: CGGGCAGC
Second: GCGGGTCA
The “PBM E-score” value of the first is higher: 0.0685 for the first, -0.00545 for the second.

Going from AGCCGTTA to GCCGCGGA, the “PBM E-score” value falls from 0.0667 to 0.0026.

Compared with CTAGTCAG, GAGACTAA is higher in “PBM E-score” value: -0.0973 for the first, 0.0911 for the second.

Going from TATTCCCA to CAGAGTCA, the “PBM E-score” value falls from 0.0427 to -0.226.

First: AGATGGTC
Second: GGCCCTAA
The “PBM E-score” value of the first is higher: -0.163 for the first, -0.269 for the second.

Going from CGGATCCG to TATAGGGA, the “PBM E-score” value falls from 0.187 to 0.00027.

First: CCCCGTTA
Second: AACGCTCT
The “PBM E-score” value of the first is lower: -0.0703 for the first, -0.0105 for the second.

Compared with CAGCCCAG, AGGAGGTC is higher in “PBM E-score” value: -0.27 for the first, -0.219 for the second.

Compared with CGATCTTC, AACTACGG is lower in “PBM E-score” value: 0.164 for the first, 0.0428 for the second.

Compared with GCGATTCC, ACATACCT is lower in “PBM E-score” value: -0.111 for the first, -0.141 for the second.

Compared with GTACTGAC, CTTACAAG is lower in “PBM E-score” value: 0.0171 for the first, -0.296 for the second.

Going from AAATTTGA to CTTCTCCC, the “PBM E-score” value falls from 0.144 to -0.00779.

First: AGTCTCGA
Second: GTCCAGCA
The “PBM E-score” value of the first is higher: 0.0736 for the first, -0.169 for the second.

Compared with CTGATACC, GACTCATA is higher in “PBM E-score” value: -0.091 for the first, 0.00475 for the second.

Compared with AGAAATCG, TCGCGTAA is higher in “PBM E-score” value: 0.0318 for the first, 0.255 for the second.

First: CGGCGCTC
Second: ATAATACG
The “PBM E-score” value of the first is lower: 0.136 for the first, 0.349 for the second.

Going from AACGGAAA to ACATACTG, the “PBM E-score” value falls from 0.22 to 0.0684.

Going from CACTCACG to CAGGCCCG, the “PBM E-score” value falls from 0.078 to -0.143.

Going from CGGTGCTC to CGCGAAAA, the “PBM E-score” value rises from 0.124 to 0.194.

Compared with CTTTTGAA, CCTAATCG is higher in “PBM E-score” value: -0.179 for the first, 0.11 for the second.

Going from CTTGGAGA to AAGTCTCA, the “PBM E-score” value falls from -0.0637 to -0.319.

First: CTAATGAA
Second: AAAGATAG
The “PBM E-score” value of the first is higher: 0.0389 for the first, -0.191 for the second.

Compared with AACGCATC, AGTTAAGC is lower in “PBM E-score” value: 0.101 for the first, 0.0271 for the second.

First: ACTAACAC
Second: CGGCCTGA
The “PBM E-score” value of the first is higher: 0.141 for the first, -0.194 for the second.

Compared with AAGCGGCC, ATTTAGAA is lower in “PBM E-score” value: -0.161 for the first, -0.17 for the second.
